From the CheMixHub viscosity set
Several values for one entry are separate records, joined by “and”; a condition that tells them apart may be missing. Identical values can stand only once. This continues a long series; more values of the same kind are listed elsewhere.

Assay: xn = mol fraction of the nth substance listed

CN(C)C=O + O
viscosity
Settings | 308.15 K | 313.15 K | 318.15 K | 323.15 K
101 kPa, x1 = 0.02 | – | – | 0.712 mPa·s | –
101 kPa, x1 = 0.03 | 0.8484 mPa·s | – | – | –
101 kPa, x1 = 0.05 | 1.035 mPa·s | – | 0.8262 mPa·s | –
101 kPa, x1 = 0.0503 | 1.068 mPa·s | 0.9556 mPa·s | 0.8604 mPa·s | –
101 kPa, x1 = 0.06 | 1.029 mPa·s | – | – | –
101 kPa, x1 = 0.0699 | 1.196 mPa·s | 1.07 mPa·s | 0.9618 mPa·s | –
101 kPa, x1 = 0.1 | 1.326 mPa·s and 1.248 mPa·s and 1.49 mPa·s | – | 1.039 mPa·s | –
101 kPa, x1 = 0.1006 | 1.38 mPa·s | 1.226 mPa·s | 1.097 mPa·s | –
101 kPa, x1 = 0.1202 | 1.482 mPa·s | 1.311 mPa·s | 1.168 mPa·s | –
101 kPa, x1 = 0.1498 | 1.627 mPa·s | 1.435 mPa·s | 1.275 mPa·s | –
101 kPa, x1 = 0.15 | 1.593 mPa·s | – | 1.211 mPa·s | –
101 kPa, x1 = 0.1571 | 1.637 mPa·s | – | – | –
101 kPa, x1 = 0.1698 | 1.706 mPa·s | 1.501 mPa·s | 1.33 mPa·s | –
101 kPa, x1 = 0.2 | 1.759 mPa·s | – | 1.319 mPa·s | –
101 kPa, x1 = 0.2002 | 1.801 mPa·s | 1.581 mPa·s | 1.399 mPa·s | –
101 kPa, x1 = 0.22 | 1.846 mPa·s | 1.62 mPa·s | 1.432 mPa·s | –
101 kPa, x1 = 0.25 | 1.849 mPa·s | – | 1.379 mPa·s | –
101 kPa, x1 = 0.2504 | 1.892 mPa·s | – | 1.467 mPa·s | –
101 kPa, x1 = 0.2608 | – | 1.753 mPa·s | – | –
101 kPa, x1 = 0.2699 | 1.856 mPa·s | – | – | –
101 kPa, x1 = 0.2702 | 1.906 mPa·s | 1.672 mPa·s | 1.478 mPa·s | –
101 kPa, x1 = 0.2921 | – | 1.766 mPa·s | – | –
101 kPa, x1 = 0.3 | 1.858 mPa·s and 1.796 mPa·s | – | 1.395 mPa·s | –
101 kPa, x1 = 0.3001 | 1.905 mPa·s | 1.673 mPa·s | 1.481 mPa·s | –
101 kPa, x1 = 0.304 | – | 1.777 mPa·s | – | –
101 kPa, x1 = 0.3199 | – | 1.755 mPa·s | – | –
101 kPa, x1 = 0.3202 | 1.891 mPa·s | – | 1.474 mPa·s | –
101 kPa, x1 = 0.3499 | 1.857 mPa·s | 1.637 mPa·s | 1.453 mPa·s | –
101 kPa, x1 = 0.35 | 1.797 mPa·s | – | 1.369 mPa·s | –
101 kPa, x1 = 0.3544 | – | 1.734 mPa·s | – | –
101 kPa, x1 = 0.4 | 1.712 mPa·s | – | 1.322 mPa·s | –
101 kPa, x1 = 0.4003 | 1.761 mPa·s | – | 1.391 mPa·s | –
101 kPa, x1 = 0.4137 | – | 1.595 mPa·s | – | –
101 kPa, x1 = 0.425 | 1.63 mPa·s | – | – | –
101 kPa, x1 = 0.4503 | 1.643 mPa·s | 1.465 mPa·s | 1.313 mPa·s | –
101 kPa, x1 = 0.4848 | – | 1.452 mPa·s | – | –
101 kPa, x1 = 0.5 | 1.469 mPa·s and 1.518 mPa·s and 1.436 mPa·s | 1.362 mPa·s | 1.206 mPa·s and 1.229 mPa·s | –
101 kPa, x1 = 0.5461 | 1.417 mPa·s | – | – | –
101 kPa, x1 = 0.5714 | – | 1.23 mPa·s | – | –
101 kPa, x1 = 0.6 | 1.232 mPa·s | – | 1.051 mPa·s | –
101 kPa, x1 = 0.6002 | 1.275 mPa·s | 1.16 mPa·s | 1.059 mPa·s | –
101 kPa, x1 = 0.6644 | 1.153 mPa·s | – | – | –
101 kPa, x1 = 0.7 | 1.042 mPa·s | 0.9927 mPa·s | 0.9005 mPa·s and 0.9164 mPa·s | –
101 kPa, x1 = 0.8 | 0.8918 mPa·s and 0.9286 mPa·s | 0.8629 mPa·s | 0.7907 mPa·s and 0.804 mPa·s | –
101 kPa, x1 = 0.8171 | – | 0.938 mPa·s | – | –
101 kPa, x1 = 0.8501 | 0.8884 mPa·s | 0.828 mPa·s | 0.7734 mPa·s | –
101 kPa, x1 = 0.9 | 0.7828 mPa·s and 0.8362 mPa·s | 0.7822 mPa·s | 0.7083 mPa·s and 0.7333 mPa·s | –
101.33 kPa, x1 = 0.099 | 1.335 mPa·s | 1.183 mPa·s | 1.057 mPa·s | 0.949 mPa·s
101.33 kPa, x1 = 0.2009 | 1.753 mPa·s | – | 1.36 mPa·s | 1.207 mPa·s
101.33 kPa, x1 = 0.3008 | 1.847 mPa·s | 1.62 mPa·s | 1.436 mPa·s | 1.274 mPa·s
101.33 kPa, x1 = 0.3995 | 1.708 mPa·s | 1.51 mPa·s | 1.349 mPa·s | 1.207 mPa·s
101.33 kPa, x1 = 0.5005 | 1.454 mPa·s | 1.306 mPa·s | 1.179 mPa·s | 1.069 mPa·s
101.33 kPa, x1 = 0.5999 | 1.229 mPa·s | 1.12 mPa·s | 1.024 mPa·s | 0.9379 mPa·s
101.33 kPa, x1 = 0.6997 | 1.035 mPa·s | 0.954 mPa·s | 0.8831 mPa·s | 0.8189 mPa·s
101.33 kPa, x1 = 0.7998 | 0.8956 mPa·s | 0.8344 mPa·s | 0.7797 mPa·s | 0.7282 mPa·s
101.33 kPa, x1 = 0.9 | 0.7894 mPa·s | 0.7417 mPa·s | 0.6979 mPa·s | 0.6585 mPa·s
